# PubChem BioAssay AID662 (National Center for Advancing Translational Sciences (NCATS), 2007)
# Screen size: about 71,000 compounds; about 1,800 (2.5%) were called active. Inconclusive results, whose numbers are uncertain, are shown with a selection of clear calls. Calls come from the whole dose curve; as a rule, active = well fitted activation curve with a large enough effect in the signal ratio, with a control signal flat (not every such curve was filed as active); inconclusive = small, poorly fitted or top-dose-only effect, or effect the other way, or a change in a side signal; inactive = flat fitted curve, though single readings scatter; the % refers to the signal ratio. Potencies of inconclusive entries are doubtful fits and often do not repeat.
# Experiment: Cell signaling CRE-BLA (Fsk stim); for activity change, negative = inhibition: % of control where 0% means no effect
# Settings: CHO CRE-bla reporter (cAMP response element driving beta-lactamase), forskolin EC10, beta-lactamase ratio; activity change, negative = inhibition: at 38.2 µM (top of the series) unless noted
# Summary of the method: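 Forskolin analogue NKH 477 at EC10 stimulated CRE-driven beta-lactamase in CHO cells alongside compound dilution series. Beta-lactamase was measured with CCF4, excitation 405 nm, emission ratio 460/530 nm.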
# Potency is the fitted concentration of half-maximal effect; tags give direction and shape of the fitted curve.
SMILES,Potency,"activity change, negative = inhibition"
COc1ccc2c(c1)CCc1c(C(=O)N3CCCC3)noc1-2,"inconclusive: 2.51 µM [rising, full curve, poor fit]",
O=C(CSc1nnc(Cc2cc(=O)[nH]c(=O)[nH]2)n1-c1ccccc1)N1CCCc2ccccc21,,inconclusive: -8.15%
O=C(CCSc1nnc2scc(-c3ccccc3)n12)NCc1ccc2c(c1)OCO2,"inconclusive: 10 µM [rising, partial curve]",
CCOC(=O)C1CCN(CC(=O)Nc2c(C(=O)OC)[nH]c3cccc(Cl)c23)CC1,,inconclusive: 8.6%
O=S(=O)(O)c1ccc(N=Nc2ccc3c(S(=O)(=O)O)cccc3c2O)c2ccccc12,,inactive: -1.42% [at 7.6 µM]
Cc1ccc2c(c1)cc(CN(Cc1ccco1)S(=O)(=O)c1ccccc1)c1nnnn12,,inactive: 10.9%
O=C(O)COc1nsnc1N1CCOCC1,,inconclusive: -8.99%
CCCCCC(=O)Nc1ccc(N2CCN(C(=O)CCC)CC2)cc1,,inconclusive: -3.23%
COC(=O)c1ccccc1NC(=O)C(CCS(C)(=O)=O)NC(C)=O (stereo not given),,inactive: -4.16%
COc1cccc(C2=NC(C)(C)NC(c3ccccc3O)C2)c1 (stereo not given),,inactive: -26.2%
COc1ccc(CCN2C(=O)c3[nH]nc(-c4ccccc4O)c3C2c2ccccc2)cc1OC (stereo not given),"inconclusive: 15.8 µM [rising, partial curve]",
CN1C(=O)OC(C)(C)C1=O,,inactive: -4.94% [at 17.1 µM]
CCOC(=O)CC1(C)NC(=O)c2c(C)sc(C(=O)OCC)c2N1 (stereo not given),"inconclusive: 12.6 µM [rising, single point]",
COCCn1c(-c2ccc(OC)c(OC)c2)nc2ccccc21,,inconclusive: 29%
c1cnc(NCCNc2ncccn2)nc1,,inactive: -2.04%
O=C(Cn1cnc2c(cnn2-c2ccc(F)cc2)c1=O)NCC1CCCO1 (stereo not given),,inconclusive: -10.8%
O=C(CN1C(=O)C2CC=CCC2C1=O)NC1=NCCS1 (stereo not given),,inactive: -6.62%
Cc1ccc(-n2nnnc2SCC(=O)Nc2c(C)n(C)n(-c3ccccc3)c2=O)cc1,,inconclusive: 7.63%
CCC1CO1 (stereo not given),,inactive: -3.22%
COc1ccc(N2C(=O)CC(Sc3ncn[nH]3)C2=O)c(OC)c1 (stereo not given),"inconclusive: 3.16 µM [rising, partial curve]",
O=C(Cc1ccccc1)N[C@H](c1ccccc1)P(=O)(O)CO,,inactive: 21.8%
Cc1cccc(CSc2ncnc3nc[nH]c23)c1,,inconclusive: 1.57%

SMILES,Potency,"activity change, negative = inhibition"
CCc1ccccc1Nc1ccc(C(=O)O)cc1N,,inactive: 0.772%
O=C(CCCN1C(=O)c2ccccc2C1=O)NCc1cccnc1,,inactive: 0.175%
Cc1ccc(N(C(=O)Cn2nnc(-c3ccc(C)o3)n2)C(C(=O)NC2CCCC2)c2ccco2)cc1 (stereo not given),,inactive: 9.45%
CSc1ccc(/C=N/n2c(C)cc(C)cc2=O)cc1,,inconclusive: -12.6% [at 7.6 µM]
c1ccc(CN2C3=NCCCN3c3ccccc32)cc1,,inconclusive: -22.1%
CCCCn1cc(C(C)(C)C)c(C#N)c1NC(C)=O,"inconclusive: 3.98 µM [rising, single point]",
Cc1ccc(-n2c(SCC(=O)NCC3CCCO3)nc3n[nH]c(C)c3c2=N)cc1Cl (stereo not given),"inconclusive: 10 µM [rising, partial curve]",
Cc1ccc2cc(CN(Cc3ccc4c(c3)OCO4)Cc3nnnn3Cc3ccco3)c(=O)[nH]c2c1C,,inactive: -2.14%
O=C(O)C(Cc1ccccc1)n1cccc1 (stereo not given),,inconclusive: 10.5%
CS(=O)(=O)c1nc(-c2ccccc2)cc(C(F)(F)F)n1,,inconclusive: 1.42% [cytotoxic]
COC(=O)Cn1c(CN2CCc3ccccc3C2)nc2c1c(=O)n(C)c(=O)n2C,"inconclusive: 5.01 µM [rising, partial curve]",
Oc1ccccc1-c1nnc(-c2ccc(C(F)(F)F)cc2)o1,,inconclusive: -25%
O=C(NCCN1CCNCC1)c1ccccn1,,inconclusive: -13.2%
Cc1ccc(-c2cc(C(F)F)n3ncc(C(=O)N4CCN(c5ccccn5)CC4)c3n2)cc1,,inactive: 10.4%
Cc1ccc(S(=O)(=O)N2CCOCC2)cc1C(=O)Nc1nc(-c2cccnc2)cs1,,inconclusive: -18.6%
CCSc1nnc(NC(=O)C2Cc3ccccc3CN2C(=O)c2ccco2)s1 (stereo not given),"inconclusive: 0.398 µM [falling, full curve, poor fit]",
Cc1cc(NC(=O)c2cc(-c3cccs3)nc3ccccc23)no1,,inconclusive: 16%
Cn1c(CSc2nc3ccc(Br)cc3[nH]2)nc2ccccc21,,inconclusive: -17.8%
CC(=O)N1CCc2cc(C(=O)CN3CCN(c4cccc(Cl)c4)CC3)ccc21,,inconclusive: -17.6%
COCC(=O)N(C)c1nnc(-c2cnccn2)s1,,inactive: 6.42%
CC(=O)N1c2ccc(S(=O)(=O)CCC(=O)O)cc2CC1C (stereo not given),,inconclusive: -7.87%
CCOC(=O)c1cc(-c2ccncc2)nc2c1c(C)nn2-c1ccccn1,active: 3.16 µM,

SMILES,Potency,"activity change, negative = inhibition"
O=C(Nc1ccc(Cl)cc1C(=O)Nc1ccccn1)c1ccco1,"inconclusive: 12.6 µM [rising, partial curve]",
COc1cccc2cc(C(=O)NCC3CCCO3)c(=O)oc12 (stereo not given),,inactive: 9.08%
COCCCNC(=O)CN(c1ccc(OC)cc1)S(=O)(=O)c1ccc(NC(C)=O)cc1,,inactive: 7.01% [at 7.6 µM]
COc1ccc(C(c2nnnn2Cc2ccccc2)N2CCN(c3nc4ccccc4s3)CC2)cc1 (stereo not given),,inconclusive: 9.72%
O=C(CSc1ncccc1-c1nc2ccccc2[nH]1)NCc1ccco1,,inconclusive: -15.3%
Cc1ccc(-n2nc(C)c3cc(C(=O)O)sc32)cc1,"inconclusive: 7.94 µM [rising, partial curve]",
COc1ccc(C(=O)Nc2ccc(N3CCOCC3)cc2)cc1OC,,inactive: 5.18%
CCS(=O)(=O)c1ccc(S(=O)(=O)CC)s1,,inactive: -0.8%
COC(=O)c1cc(Br)c(=O)n(CCC2=CCCCC2)c1,,inconclusive: 15.5%
O=[N+]([O-])c1ccc(Nc2nc3ccccc3s2)cc1,,inactive: 17.2% [at 7.6 µM]
CCCSc1nc2c(cnn2-c2ccc(C)cc2)c(=O)[nH]1,active: 10 µM,
N[C@@H](Cc1cccnn1)C(=O)O,,inactive: 2.89% [at 7.6 µM]
COc1cc(-c2nc(S(=O)(=O)c3ccc(C)cc3)c(N(C)C)o2)cc(OC)c1OC,active: 2 µM,
CCOC(=O)CNc1nc(-c2ccncc2)nc2ccccc12,"inconclusive: 10 µM [rising, partial curve]",
COc1ccc(Cc2nnc(SCC(=O)Nc3ncc(C)s3)o2)cc1,,inactive: -9.37%
Cc1cccc(CCNC(=O)CCc2nc(-c3ccccc3F)no2)c1,,inconclusive: -10.4%
O=C(COC(=O)C1c2ccccc2Oc2ccccc21)Nc1ccc2c(c1)OCO2,,inactive: -12.7%
Cc1ccc2nc(Nc3ccc4[nH]c(=O)[nH]c4c3)c(-n3nc(C)cc3C)nc2c1,,inconclusive: 3.44%
Cc1ccc(-c2nsc3c(N4CCN(C(=O)c5ccco5)CC4)ncnc23)cc1,,inactive: -2.62%
O=C(CN1C(=O)NC2(CCCCCC2)C1=O)c1ccc2c(c1)OCCO2,"inconclusive: 3.98 µM [falling, single point]",
C(=N\n1cnnc1)/c1cn(-c2cccs2)nc1-c1ccccc1,"inconclusive: 10 µM [rising, single point]",
COc1cccc(C(c2nnnn2Cc2ccccc2)N2CCN(C3CCCC3)CC2)c1OC (stereo not given),,inconclusive: -7.57%

SMILES,Potency,"activity change, negative = inhibition"
O=C1CCCN1CCCNc1ncnc2c1[nH]c1ccccc12,,inconclusive: 7.5%
O=C(NCC1CCCO1)NC1(C(F)(F)F)Oc2ccccc2O1 (stereo not given),"inconclusive: 10 µM [falling, single point]",
CSc1oc(-c2ccco2)nc1S(=O)(=O)c1ccc(Br)cc1,,inconclusive: 21.9%
CCOCCCn1cnc2c(c1=O)c1nc3ccccc3nc1n2-c1ccccc1,"inconclusive: 10 µM [rising, single point]",
FC(F)(F)c1ccccc1-c1cncnc1NCc1cccs1,,inactive: 9.6%
Cc1ccc(-n2ncc3c(=O)n(CC(=O)Nc4cccc(Cl)c4)cnc32)cc1C,"inconclusive: 25.1 µM [rising, single point]",
COc1ccc(N/C(N)=N/c2nc(CSc3ccc(C)cc3)cc(=O)[nH]2)cc1,,inconclusive: 11.6%
CCOC(=O)C1CCCN(C(=O)c2cnn3c(C(F)F)cc(-c4ccc(C)cc4)nc23)C1 (stereo not given),,inconclusive: 27.1%
COc1ccc(Oc2nc(C)nc3c2oc2ccccc23)cc1,"inconclusive: 2 µM [rising, partial curve]",
C[C@@H](N=C(N)N)C(=O)O,,inactive: -3.67% [at 7.6 µM]
CCn1nnnc1NCc1cccn1C,,inconclusive: 14.9%
COC(=O)c1sc(N2C(=O)C(O)=C(C(=O)c3ccc(C)o3)C2c2ccc(F)cc2)nc1C (stereo not given),active: 3.98 µM,
CSc1ccc2[nH]c(=O)cc(C)c2c1,"inconclusive: 10 µM [rising, single point]",
C=CCOc1cccc(C2C(C(=O)c3ccc(C)o3)=C(O)C(=O)N2c2nccs2)c1 (stereo not given),,inconclusive: 7.53%
CCOC(=O)NCCc1c(C)nc2c(c(C)nn2C(C)(C)C)c1C,active: 5.01 µM,
COc1cccc(-c2cc(NCc3ccccc3)ncn2)c1,"inconclusive: 12.6 µM [rising, partial curve]",
Cc1cc(NC(=O)CSc2nc(CCC3CCCC3)nc3ccccc23)no1,,inconclusive: 11.7%
O=C(O)[C@@H](O)[C@@H](O)[C@@H](O)[C@@H](O)C(=O)O (tested in a mixture with another compound),,inactive: 2.46% [at 17.1 µM]
CCOC(=O)C1CCN(C(=O)COc2cc(C)c(Br)c(C)c2)CC1,"inconclusive: 10 µM [rising, single point]",
